Experimental data published in the supplement of paper PMC8728848.
The other results are listed elsewhere or left out.

Legend:
Assay in all cases: glycan array binding signal (z-score within array); higher = stronger binding
Settings in all cases: glycan notation: IUPAC condensed, linker removed
[1] = target: Fuc(a1-2)[GalNAc(a1-3)]Gal(b1-3)GlcNAc(b1-6)GalNAc
Summary of the method: (§1)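 From the Consortium for Functional Glycomics database, 3228 arrays were curated, keeping only those whose protein sequence was available. Binding is given as a within-array Z-score averaged across arrays sharing a protein sequence and across linkers. Negative Z-scores can be read as non-binding.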

[2] = target: Fuc(a1-2)[GalNAc(a1-3)]Gal(b1-4)Glc
Summary of the method: as §1

[3] = target: Fuc(a1-2)[GalNAc(a1-3)]Gal(b1-4)GlcNAc
Summary of the method: as §1

[4] = target: Fuc(a1-2)[GalNAc(a1-3)]Gal(b1-4)GlcNAc(b1-2)Man
Summary of the method: as §1

[5] = target: Fuc(a1-2)[GalNAc(a1-3)]Gal(b1-4)GlcNAc(b1-2)Man(a1-3)[Fuc(a1-2)[GalNAc(a1-3)]Gal(b1-4)GlcNAc(b1-2)Man(a1-6)]Man(b1-4)GlcNAc(b1-4)GlcNAc
Summary of the method: as §1

[6] = target: Fuc(a1-2)[GalNAc(a1-3)]Gal(b1-4)GlcNAc(b1-2)Man(a1-3)[Fuc(a1-2)[GalNAc(a1-3)]Gal(b1-4)GlcNAc(b1-2)Man(a1-6)]Man(b1-4)GlcNAc(b1-4)[Fuc(a1-6)]GlcNAc
Summary of the method: as §1

[7] = target: Fuc(a1-2)[GalNAc(a1-3)]Gal(b1-4)GlcNAc(b1-3)Gal(b1-4)GlcNAc
Summary of the method: as §1

[8] = target: Fuc(a1-2)[GalNAc(a1-3)]Gal(b1-4)GlcNAc(b1-3)Gal(b1-4)GlcNAc(b1-3)Gal(b1-4)GlcNAc
Summary of the method: as §1

[9] = target: Fuc(a1-2)[GalNAc(a1-3)]Gal(b1-4)GlcNAc(b1-3)GalNAc
Summary of the method: as §1

[10] = target: Fuc(a1-2)[GalNAc(a1-3)]Gal(b1-4)GlcNAc(b1-3)[Fuc(a1-2)[GalNAc(a1-3)]Gal(b1-4)GlcNAc(b1-6)]GalNAc
Summary of the method: as §1

[11] = target: Fuc(a1-2)[GalNAc(a1-3)]Gal(b1-4)GlcNAc(b1-6)GalNAc
Summary of the method: as §1

[12] = target: Fuc(a1-2)[GalNAc(a1-3)]Gal(b1-4)[Fuc(a1-3)]GlcNAc
Summary of the method: as §1

[13] = target: Fuc(a1-2)[GalNAc(a1-3)]Gal(b1-4)[Fuc(a1-3)]GlcNAc(b1-3)GalNAc
Summary of the method: as §1

[14] = target: Fuc(a1-2)[GalNAc(a1-4)]Gal(b1-4)GlcNAc
Summary of the method: as §1

[15] = target: Fuc(a1-2)[GalNAc(b1-3)]Gal
Summary of the method: as §1

Fuc(a1-3)GlcNAc = target: Fuc(a1-3)GlcNAc
Summary of the method: as §1

[16] = target: Fuc(a1-3)[Gal(b1-4)]Glc6S
Summary of the method: as §1

[17] = target: Fuc(a1-3)[Gal(b1-4)]GlcNAc
Summary of the method: as §1

[18] = target: Fuc(a1-3)[Gal(b1-4)]GlcNAc(b1-2)Man
Summary of the method: as §1

[19] = target: Fuc(a1-3)[Gal(b1-4)]GlcNAc(b1-2)Man(a1-3)[Fuc(a1-3)[Gal(b1-4)]GlcNAc(b1-2)Man(a1-6)]Man(b1-4)GlcNAc(b1-4)GlcNAc
Summary of the method: as §1

[20] = target: Fuc(a1-3)[Gal(b1-4)]GlcNAc(b1-2)Man(a1-3)[Fuc(a1-3)[Gal(b1-4)]GlcNAc(b1-2)Man(a1-6)]Man(b1-4)GlcNAc(b1-4)[Fuc(a1-6)]GlcNAc
Summary of the method: as §1

[21] = target: Fuc(a1-3)[Gal(b1-4)]GlcNAc(b1-3)Gal(b1-3)[Fuc(a1-4)]GlcNAc
Summary of the method: as §1

[22] = target: Fuc(a1-3)[Gal(b1-4)]GlcNAc(b1-3)Gal(b1-4)[Fuc(a1-3)]GlcNAc
Summary of the method: as §1

[23] = target: Fuc(a1-3)[Gal(b1-4)]GlcNAc(b1-3)Gal(b1-4)[Fuc(a1-3)]GlcNAc(b1-3)Gal(b1-4)[Fuc(a1-3)]GlcNAc
Summary of the method: as §1

[24] = target: Fuc(a1-3)[Gal(b1-4)]GlcNAc(b1-3)GalNAc
Summary of the method: as §1

[25] = target: Fuc(a1-3)[Gal(b1-4)]GlcNAc(b1-6)GalNAc
Summary of the method: as §1

[26] = target: Fuc(a1-3)[Gal(b1-4)]GlcNAc(b1-6)[Gal(b1-3)GlcNAc(b1-3)]Gal(b1-4)Glc
Summary of the method: as §1

[27] = target: Fuc(a1-3)[Gal(b1-4)]GlcNAc6S
Summary of the method: as §1

[28] = target: Fuc(a1-3)[Gal3S(b1-4)]Glc
Summary of the method: as §1

[29] = target: Fuc(a1-3)[Gal3S(b1-4)]GlcNAc
Summary of the method: as §1

[30] = target: Fuc(a1-3)[Gal3S(b1-4)]GlcNAc6S
Summary of the method: as §1

[31] = target: Fuc(a1-3)[GalNAc(b1-4)]GlcNAc
Summary of the method: as §1

[32] = target: Fuc(a1-3)[GalNAc(b1-4)]GlcNAc6S
Summary of the method: as §1

Fuc(a1-4)GlcNAc = target: Fuc(a1-4)GlcNAc
Summary of the method: as §1

Fuc(b1-3)GlcNAc = target: Fuc(b1-3)GlcNAc
Summary of the method: as §1

Gal(a1-2)Gal = target: Gal(a1-2)Gal
Summary of the method: as §1

Gal(a1-3)Gal = target: Gal(a1-3)Gal
Summary of the method: as §1

B1: FimA-N1 (Actinomyces oris) (protein)
chain: MHHHHHHSSGVDLGTENLYFQSNATETPNYGNIKTDATGSLVIHKHLTGGGKDIGTPTGTAQNADDKGPAVEGVVFTAYPITDINLKDPAGWDTISNLSRTGVPDSACANPAAPTLGAHQFGTPKVSPATTKEGLATITEMPVQAYLVCETTTPGDIVQKAKPFVVTIPHPNTAAGADGQWIYDVNVYPKNEAIDVDKTIQAQK
- glycan array binding signal (z-score) [1]: -0.324
- glycan array binding signal (z-score) [2]: -0.095
- glycan array binding signal (z-score) [3]: -0.453
- glycan array binding signal (z-score) [4]: -0.269
- glycan array binding signal (z-score) [5]: -0.201
- glycan array binding signal (z-score) [6]: -0.321
- glycan array binding signal (z-score) [7]: -0.232
- glycan array binding signal (z-score) [8]: -0.23
- glycan array binding signal (z-score) [9]: -0.41
- glycan array binding signal (z-score) [10]: -0.224
- glycan array binding signal (z-score) [11]: -0.162
- glycan array binding signal (z-score) [12]: 0.129
- glycan array binding signal (z-score) [13]: 0.011
- glycan array binding signal (z-score) [14]: 0.103
- glycan array binding signal (z-score) [15]: 1.69
- glycan array binding signal (z-score) (Fuc(a1-3)GlcNAc): -0.336
- glycan array binding signal (z-score) [16]: 1.03
- glycan array binding signal (z-score) [17]: -0.288
- glycan array binding signal (z-score) [18]: 0.002
- glycan array binding signal (z-score) [19]: 0.122
- glycan array binding signal (z-score) [20]: -0.215
- glycan array binding signal (z-score) [21]: -0.054
- glycan array binding signal (z-score) [22]: 0.245
- glycan array binding signal (z-score) [23]: -0.518
- glycan array binding signal (z-score) [24]: -0.221
- glycan array binding signal (z-score) [25]: -0.055
- glycan array binding signal (z-score) [26]: -0.312
- glycan array binding signal (z-score) [27]: -0.211
- glycan array binding signal (z-score) [28]: -0.164
- glycan array binding signal (z-score) [29]: 0.64
- glycan array binding signal (z-score) [30]: 0.124
- glycan array binding signal (z-score) [31]: 0.433
- glycan array binding signal (z-score) [32]: -0.33
- glycan array binding signal (z-score) (Fuc(a1-4)GlcNAc): 0.275
- glycan array binding signal (z-score) (Fuc(b1-3)GlcNAc): -0.154
- glycan array binding signal (z-score) (Gal(a1-2)Gal): -0.423
- glycan array binding signal (z-score) (Gal(a1-3)Gal): -0.097
